# Source: the supplement of paper PMC8728848
# The list shows a part of the results.
# B1: Gal-9-hFc (Mus musculus), O08573-2 (protein)
# chain: MALFSAQSPYINPIIPFTGPIQGGLQEGLQVTLQGTTKSFAQRFVVNFQNSFNGNDIAFHFNPRFEEGGYVVCNTKQNGQWGPEERKMQMPFQKGMPFELCFLVQRSEFKVMVNKKFFVQYQHRVPYHLVDTIAVSGCLKLSFITFQTQNFRPAHQAPMAQTTIHMVHSTPGQMFSTPGIPPVVYPTPAYTIPFYTPIPNGLYPSKSIMISGNVLPDATRFHINLRCGGDIAFHLNPRFNENAVVRNTQINNSWGQEERSLLGRMPFSRGQSFSVWIICEGHCFKVAVNGQHMCEYYHRLKNLQDINTLEVAGDIQLTHVQT
# Columns and labels:
# Experiment in all cases: glycan array binding signal (z-score within array); higher = stronger binding
# Conditions in all cases: glycan notation: IUPAC condensed, linker removed
# [1] = target: Neu5Ac(a2-3)Gal(b1-4)GlcNAc(b1-3)Gal(b1-4)GlcNAc(b1-2)Man(a1-3)[Neu5Ac(a2-3)Gal(b1-4)GlcNAc(b1-3)Gal(b1-4)GlcNAc(b1-2)Man(a1-6)]Man(b1-4)GlcNAc(b1-4)GlcNAc
# Procedure, shortened: (§1)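 Columns mapping to the same glycan were averaged after glycan names were converted to IUPAC-condensed notation. The data come from 3228 arrays in the Consortium for Functional Glycomics database, limited to those with an available protein sequence. Binding is reported as a within-array Z-score averaged across arrays of one protein sequence and across linkers.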
# [2] = target: Neu5Ac(a2-3)Gal(b1-4)GlcNAc(b1-3)Gal(b1-4)GlcNAc(b1-3)Gal(b1-4)GlcNAc
# Procedure, shortened: as §1
# [3] = target: Neu5Ac(a2-3)Gal(b1-4)GlcNAc(b1-3)Gal(b1-4)GlcNAc(b1-3)Gal(b1-4)GlcNAc(b1-2)Man(a1-3)[Neu5Ac(a2-3)Gal(b1-4)GlcNAc(b1-3)Gal(b1-4)GlcNAc(b1-3)Gal(b1-4)GlcNAc(b1-2)Man(a1-6)]GalNAc
# Procedure, shortened: as §1
# [4] = target: Neu5Ac(a2-3)Gal(b1-4)GlcNAc(b1-3)Gal(b1-4)GlcNAc(b1-3)GalNAc
# Procedure, shortened: as §1
# [5] = target: Neu5Ac(a2-3)Gal(b1-4)GlcNAc(b1-3)Gal(b1-4)GlcNAc(b1-3)[Neu5Ac(a2-3)Gal(b1-4)GlcNAc(b1-3)Gal(b1-4)GlcNAc(b1-6)]GalNAc
# Procedure, shortened: as §1
# [6] = target: Neu5Ac(a2-3)Gal(b1-4)GlcNAc(b1-3)Gal(b1-4)GlcNAc(b1-6)[Gal(b1-3)]GalNAc
# Procedure, shortened: as §1
# [7] = target: Neu5Ac(a2-3)Gal(b1-4)GlcNAc(b1-3)Gal(b1-4)[Fuc(a1-3)]GlcNAc
# Procedure, shortened: as §1
# [8] = target: Neu5Ac(a2-3)Gal(b1-4)GlcNAc(b1-3)GalNAc
# Procedure, shortened: as §1
# [9] = target: Neu5Ac(a2-3)Gal(b1-4)GlcNAc(b1-3)[Neu5Ac(a2-3)Gal(b1-4)GlcNAc(b1-6)]GalNAc
# Procedure, shortened: as §1
# [10] = target: Neu5Ac(a2-3)Gal(b1-4)GlcNAc(b1-6)GalNAc
# Procedure, shortened: as §1
# [11] = target: Neu5Ac(a2-3)Gal(b1-4)GlcNAc(b1-6)[Gal(b1-3)]GalNAc
# Procedure, shortened: as §1
# [12] = target: Neu5Ac(a2-3)Gal(b1-4)GlcNAc(b1-6)[Neu5Ac(a2-3)Gal(b1-3)]GalNAc
# Procedure, shortened: as §1
# [13] = target: Neu5Ac(a2-3)Gal(b1-4)GlcNAc6S
# Procedure, shortened: as §1
# [14] = target: Neu5Ac(a2-3)Gal(b1-4)[Fuc(a1-3)]GlcNAc
# Procedure, shortened: as §1
# [15] = target: Neu5Ac(a2-3)Gal(b1-4)[Fuc(a1-3)]GlcNAc(b1-2)Man
# Procedure, shortened: as §1
# [16] = target: Neu5Ac(a2-3)Gal(b1-4)[Fuc(a1-3)]GlcNAc(b1-3)Gal
# Procedure, shortened: as §1
# [17] = target: Neu5Ac(a2-3)Gal(b1-4)[Fuc(a1-3)]GlcNAc(b1-3)Gal(b1-4)GlcNAc
# Procedure, shortened: as §1
# [18] = target: Neu5Ac(a2-3)Gal(b1-4)[Fuc(a1-3)]GlcNAc(b1-3)Gal(b1-4)[Fuc(a1-3)]GlcNAc(b1-3)Gal(b1-4)[Fuc(a1-3)]GlcNAc
# Procedure, shortened: as §1
# [19] = target: Neu5Ac(a2-3)Gal(b1-4)[Fuc(a1-3)]GlcNAc(b1-3)GalNAc
# Procedure, shortened: as §1
# [20] = target: Neu5Ac(a2-3)Gal(b1-4)[Fuc(a1-3)]GlcNAc(b1-6)[Gal(b1-3)]GalNAc
# Procedure, shortened: as §1
# [21] = target: Neu5Ac(a2-3)Gal(b1-4)[Fuc(a1-3)]GlcNAc(b1-6)[Neu5Ac(a2-3)Gal(b1-3)]GalNAc
# Procedure, shortened: as §1
# [22] = target: Neu5Ac(a2-3)Gal(b1-4)[Fuc(a1-3)]GlcNAc6S
# Procedure, shortened: as §1
# [23] = target: Neu5Ac(a2-3)Gal6S(b1-4)GlcNAc
# Procedure, shortened: as §1
# [24] = target: Neu5Ac(a2-3)Gal6S(b1-4)[Fuc(a1-3)]GlcNAc
# Procedure, shortened: as §1
# Neu5Ac(a2-3)GalNAc = target: Neu5Ac(a2-3)GalNAc
# Procedure, shortened: as §1
# [25] = target: Neu5Ac(a2-3)GalNAc(b1-4)GlcNAc
# Procedure, shortened: as §1
# [26] = target: Neu5Ac(a2-3)[GalNAc(b1-4)]Gal(b1-4)Glc
# Procedure, shortened: as §1
# [27] = target: Neu5Ac(a2-3)[GalNAc(b1-4)]Gal(b1-4)GlcNAc
# Procedure, shortened: as §1
# [28] = target: Neu5Ac(a2-3)[GalNAc(b1-4)]Gal(b1-4)GlcNAc(b1-3)GalNAc
# Procedure, shortened: as §1
# [29] = target: Neu5Ac(a2-3)[Neu5Ac(a2-6)]GalNAc
# Procedure, shortened: as §1
# Neu5Ac(a2-6)Gal = target: Neu5Ac(a2-6)Gal
# Procedure, shortened: as §1
# [30] = target: Neu5Ac(a2-6)Gal(b1-3)GlcNAc(b1-3)[Gal(b1-4)GlcNAc(b1-6)]Gal(b1-4)Glc
# Procedure, shortened: as §1
# Neu5Ac(a2-6)Gal(b1-4)Glc = target: Neu5Ac(a2-6)Gal(b1-4)Glc
# Procedure, shortened: as §1
# [31] = target: Neu5Ac(a2-6)Gal(b1-4)GlcNAc
# Procedure, shortened: as §1
# [32] = target: Neu5Ac(a2-6)Gal(b1-4)GlcNAc(b1-2)Man
# Procedure, shortened: as §1
# [33] = target: Neu5Ac(a2-6)Gal(b1-4)GlcNAc(b1-2)Man(a1-3)Man(b1-4)GlcNAc(b1-4)GlcNAc
# Procedure, shortened: as §1
# [34] = target: Neu5Ac(a2-6)Gal(b1-4)GlcNAc(b1-2)Man(a1-3)[Gal(b1-4)GlcNAc(b1-2)Man(a1-6)]Man(b1-4)GlcNAc(b1-4)GlcNAc
# Procedure, shortened: as §1
# [35] = target: Neu5Ac(a2-6)Gal(b1-4)GlcNAc(b1-2)Man(a1-3)[GlcNAc(b1-2)Man(a1-6)]Man(b1-4)GlcNAc(b1-4)GlcNAc
# Procedure, shortened: as §1
binder,measurement,setting,value
B1,glycan array binding signal (z-score),[1],0.149
same,glycan array binding signal (z-score),[2],-0.291
same,glycan array binding signal (z-score),[3],0.936
same,glycan array binding signal (z-score),[4],-0.347
same,glycan array binding signal (z-score),[5],-0.279
same,glycan array binding signal (z-score),[6],-0.139
same,glycan array binding signal (z-score),[7],-0.352
same,glycan array binding signal (z-score),[8],-0.113
same,glycan array binding signal (z-score),[9],-0.258
same,glycan array binding signal (z-score),[10],-0.354
same,glycan array binding signal (z-score),[11],0.436
same,glycan array binding signal (z-score),[12],-0.301
same,glycan array binding signal (z-score),[13],0.075
same,glycan array binding signal (z-score),[14],-0.627
same,glycan array binding signal (z-score),[15],-0.352
same,glycan array binding signal (z-score),[16],-0.599
same,glycan array binding signal (z-score),[17],-0.249
same,glycan array binding signal (z-score),[18],-0.565
same,glycan array binding signal (z-score),[19],0.22
same,glycan array binding signal (z-score),[20],0.102
same,glycan array binding signal (z-score),[21],0.233
same,glycan array binding signal (z-score),[22],-0.309
same,glycan array binding signal (z-score),[23],-0.251
same,glycan array binding signal (z-score),[24],0.075
same,glycan array binding signal (z-score),Neu5Ac(a2-3)GalNAc,-0.229
same,glycan array binding signal (z-score),[25],-0.356
same,glycan array binding signal (z-score),[26],-0.51
same,glycan array binding signal (z-score),[27],-0.526
same,glycan array binding signal (z-score),[28],-0.282
same,glycan array binding signal (z-score),[29],-0.344
same,glycan array binding signal (z-score),Neu5Ac(a2-6)Gal,-0.702
same,glycan array binding signal (z-score),[30],-0.655
same,glycan array binding signal (z-score),Neu5Ac(a2-6)Gal(b1-4)Glc,-0.373
same,glycan array binding signal (z-score),[31],-0.499
same,glycan array binding signal (z-score),[32],0.192
same,glycan array binding signal (z-score),[33],-0.184
same,glycan array binding signal (z-score),[34],0.818
same,glycan array binding signal (z-score),[35],-0.015
